Assay results taken from paper PMC8350011, “Interactions between semaphorins and plexin–neuropilin receptor complexes in the membranes of live cells” (The Journal of Biological Chemistry, 2021).

Molecular target: the molecule itself
Assay: PIE-FCCS (pulsed-interleaved excitation fluorescence cross-correlation spectroscopy); single live Cos-7 cells co-expressing eGFP and mCherry fusions, peripheral membrane, no exogenous ligand; 85 to 1245 molecules/μm^2; fraction correlated (fc): median below 0.09 monomer, 0.09-0.17 dimer, above 0.17 higher oligomers (homotypic)

B1: plexin A4 (receptor)
chain: not shown
notes: Two constructs (eGFP and mCherry fusions); The N1 vectors probably put the fluorescent protein at the C-terminus; also called plexin A4-eGFP; plexin A4-mCh; source: Cos-7, transiently transfected, in the membrane of live cells
With B1 the “median fraction correlated (fc)” value was 0.14 and the “stoichiometry N” value was 2.

B2: neuropilin-1 (receptor)
chain: not shown
notes: Two constructs (eGFP fusion in pEGFP-N1, mCherry fusion in pmCh-N1), co-expressed for the homotypic measurements; Nrp1-mCh was used with the plexin-eGFP constructs; The N1 vectors probably put the fluorescent protein at the C-terminus; also called Nrp1; Nrp1-eGFP; source: Cos-7, transiently transfected, in the membrane of live cells
In the case of B2, the “median fraction correlated (fc)” value is reported as 0.14.
